Test results taken from the supplement of paper PMC4967469.
The IC50 comes from the fitted curve, where viability falls to half of the control; where the fit passes the top or lowest dose, that dose stands as a limit. AUC is the area under the same curve over the 256-fold range up to the top dose, as a fraction; the more sensitive the line, the further below 1. For some assays here: A top dose marked as inferred is not printed in the source and was worked back from the curve model.

Legend:
Assay in all cases: Viability of human cancer cell lines after 72 h of drug (GDSC screen)
[1] = compound: Cc1nc(Nc2ncc(C(=O)Nc3c(C)cccc3Cl)s2)cc(N2CCN(CCO)CC2)n1 [Dasatinib]; details: top dose 1.28 µM
Method: (§1)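 Human cancer cell lines in 384-well plates, medium with 10% serum, drug for 72 h over a 256-fold dose range (nine 2-fold or five 4-fold steps up to the top dose). Adherent lines were fixed and stained with the nucleic acid dye Syto60, suspension lines read with resazurin; signal relative to control wells, capped at 0 and 100%. One two-parameter sigmoid per drug and line, fitted in a mixed model over all curves with the slope shared within a line.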

[2] = compound: Cc1n[nH]c2ccc(-c3cncc(OC[C@@H](N)Cc4c[nH]c5ccccc45)c3)cc12 [A-443654]; details: top dose 1.024 µM; top dose inferred
Method: as §1

[3] = compound: Cc1cc([N+](=O)[O-])ccc1NS(=O)(=O)c1cc(Cl)ccc1Cl [FH535]; details: top dose 32 µM; top dose inferred
Method: as §1

[4] = compound: COc1cc(N2CCN(C)CC2)ccc1Nc1nc(N)c(C(=O)c2c(Cl)cccc2Cl)s1 [XMD14-99]; details: top dose 10.24 µM; top dose inferred
Method: as §1

[5] = compound: O=C(NC1CCNCC1)c1n[nH]cc1NC(=O)c1c(Cl)cccc1Cl [AT-7519]; details: top dose 10.24 µM; top dose inferred
Method: as §1

Cell Line	AUC [1]	IC50 [1] [µM]	AUC [2]	IC50 [2] [µM]	AUC [3]	IC50 [3] [µM]	AUC [4]	IC50 [4] [µM]	AUC [5]	IC50 [5] [µM]
NCI-H2196 (small cell lung carcinoma, adherent)	0.95	> 1.28	0.814	0.594	0.879	> 32	0.949	> 10.2	0.71	2.6
NCI-SNU-1 (stomach, suspension)	0.984	> 1.28	0.769	0.398	0.748	10.6	0.871	> 10.2	0.53	0.773
NCI-SNU-16 (stomach, suspension)	0.975	> 1.28	0.801	0.432	0.926	> 32	0.991	> 10.2	0.556	0.893
NEC8 (testis, adherent)	0.96	> 1.28	0.945	> 1.02	0.845	18.1	0.991	> 10.2	0.381	0.318
NH-12 (neuroblastoma, adherent)	0.984	> 1.28	0.984	> 1.02	0.793	16.6	0.963	> 10.2	0.881	> 10.2
NMC-G1 (glioma, adherent)	0.548	0.112	0.837	0.919	0.67	6.67	0.942	> 10.2	0.774	4.98
NOS-1 (osteosarcoma, adherent)	0.246	0.0123	0.577	0.109	0.511	2.15	0.881	> 10.2	0.346	0.216
NTERA-2 cl.D1 (testis, adherent)	0.549	0.109	0.384	0.0309	0.444	1.41	0.985	> 10.2	0.584	1.08
OCI-AML3 (acute myeloid leukaemia, suspension)	0.984	> 1.28	0.857	0.649	0.755	9.45	0.964	> 10.2	0.391	0.337
OCI-LY-19 (B-cell lymphoma, suspension)	0.874	1.08	0.717	0.249	0.812	15.5	0.903	> 10.2	0.278	0.159
OCUB-M (breast, adherent)	0.867	0.906	0.352	0.0265	0.333	0.736	0.988	> 10.2	0.458	0.499
OMC-1 (cervix, adherent)	0.97	> 1.28	0.697	0.235	0.703	7.68	0.982	> 10.2	0.722	2.83
ONS-76 (medulloblastoma, adherent)	0.736	0.402	0.756	0.374	0.683	6.78	0.969	> 10.2	0.366	0.265
OVCAR-4 (ovary, adherent)	0.697	0.38	0.684	0.273	0.614	4.8	0.976	> 10.2	0.699	3.1
P31-FUJ (acute myeloid leukaemia, suspension)	0.996	> 1.28	0.987	> 1.02	0.954	> 32	0.996	> 10.2	0.901	7.62
PL-21 (acute myeloid leukaemia, suspension)	0.982	> 1.28	0.716	0.293	0.73	10.2	0.945	> 10.2	0.224	0.0859
QIMR-WIL (acute myeloid leukaemia, suspension)	0.734	0.364	0.72	0.263	0.642	4.87	0.924	> 10.2	0.421	0.393
RH-1 (rhabdomyosarcoma, adherent)	0.984	> 1.28	0.99	> 1.02	0.766	9.95	0.983	> 10.2	0.476	0.557
RL (B-cell lymphoma, suspension)	0.99	> 1.28	0.99	> 1.02	0.881	28.8	0.976	> 10.2	0.297	0.182
RPMI-6666 (Hodgkin lymphoma, suspension)	0.699	0.329	0.606	0.133	0.816	22.4	0.838	9.03	0.335	0.202
